Test results: PubChem BioAssay AID1963576 (National Center for Advancing Translational Sciences (NCATS), 2024)
Hit rate of the full screen: of about 46,000 compounds, about 60 (0.1%) were called active. Inconclusive results (about 3%) are left out. Calls come from the whole dose curve; as a rule, active = well fitted inhibition curve with a large enough effect; inconclusive = small, poorly fitted or top-dose-only effect; inactive = no such curve, though single readings can be large or run the other way. The list shows a part of the results.

assay: Primary qHTS assay for Inhibitors of ovarian cancer metastasis using an organotypic tumor microenvironment (TME) model.; note: nearly all actives have a fitted effect of over 65% in size;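 for activity change, negative = inhibition: plate controls were DMSO wells for no effect and tomatine positive control wells for full effect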; conditions: SKOV3ip1-GFP adhesion/invasion on 3D omental model, fluorescence; series mostly up to 45.8 µM; activity change, negative = inhibition: at the top concentration
Method in brief: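 Adhesion/invasion was scored as fixed GFP-labeled SKOV3ip1 cell counts (488/509 nm), normalized to DMSO and tomatine controls. Cancer cells in serum-free medium, with four compound doses (0.36-46 umol/L), sat 2 hr at RT then 16 hr at 37 C on a 48 hr fibroblast/mesothelial/ECM culture.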

SMILES | activity change, negative = inhibition | outcome
CCOc1ccc(C2c3c(oc4ccc(C)cc4c3=O)C(=O)N2CCCN2CCOCC2)cc1 (stereo unspecified) | inactive: -3.83% | –
CCOc1ccc(Nc2c(S(=O)(=O)c3ccc(Cl)cc3)cnc3ccc(OCC)cc23)cc1 | inactive: 2.82% | –
Cc1cn(C)c(CC(=O)NCc2ccccc2)c1C(=O)O | inactive: 9.51% | –
Cc1ccsc1CN(C(=O)c1oc2ccc(Br)cc2c1C)C1CCS(=O)(=O)C1 (stereo unspecified) | inactive: -9.42% | –
Cc1cc(N2CCN(C)CC2)nc2ccc(NC(=O)Nc3cccc(Cl)c3)cc12 | inactive: -10.4% | –
O=C(CSc1ncc(-c2ccccc2)[nH]1)Nc1ccc(Cl)cc1 | inactive: -19.2% | –
Cc1ccc(CNc2nc(-c3ccco3)nn2S(=O)(=O)c2ccc3ccccc3c2)cc1 | inactive: -25.6% | –
O=C(NCCN1CCN(c2cccc(Cl)c2)CC1)Nc1ccccc1C(F)(F)F | inactive: -2.77% | –
Cc1c(C)n(Cc2ccc(F)cc2)c2ccc(C(=O)NCc3ccco3)cc12 | inactive: 24.4% | –
CCOc1ccc(CCNC(=O)Cn2nnc(-c3ccccc3Cl)n2)cc1OCC | inactive: -6.71% | –
CSc1ncc(C(=O)N2CCN(c3cccc(Cl)c3)CC2)c(C)n1 | inactive: -6.47% | –
O=C(CCCn1c(=O)c2cccn2c2cccnc21)NCc1ccccc1Br | inactive: 2.82% | –
O=C(CC1C(=O)N(c2ccccc2)C(=O)N1CCc1cccs1)Nc1ccc(F)cc1 (stereo unspecified) | inactive: 0.418% | –
CCOC(=O)c1sc2ccccc2c1S(=O)(=O)N1CCN(c2cccc(C)c2)C(C)C1 (stereo unspecified) | inactive: -3.88% | –
COc1ccc2c(c1)CC(C(=O)NCCCN1CCN(c3cccc(Cl)c3)CC1)CO2 (stereo unspecified) | inactive: -25.3% | –
O=C(Cn1c(=O)nc(-c2ccccc2)c2cc(Cl)ccc21)N1CCN(c2ccccc2F)CC1 | – | inactive
Cc1ccc(S(=O)(=O)Nc2cc3c(cc2NCc2ccccc2)n(C)c(=O)n3C)cc1 | inactive: -1.99% | –
Cc1cccc(-c2nnn3c2nc(NCc2ccc4c(c2)OCO4)c2ccccc23)c1 | inactive: 63.6% | –
COc1cccc2c1ncc1c(-c3ccc(C)cc3)nn(-c3ccc(F)cc3)c12 | inactive: -7.02% | –
CC(=O)OCC(=O)[C@@]12OC(C)(C)O[C@H]1C[C@H]1[C@@H]3C[C@H](F)C4=CC(=O)C=C[C@]4(C)[C@@]3(F)[C@@H](O)C[C@@]12C | inactive: 25.4% | –
COc1ccc(CCNC(=O)c2cnn(-c3cccc(C)c3)c2C2CCN(C(=O)OC(C)(C)C)CC2)cc1OC | inactive: -8.4% | –
CC(C)COc1ccc(C(=O)N2CCCCC2CCN2CCCCC2)cc1 (stereo unspecified) | inactive: -14.1% | –
CC(=O)c1ccc(NC(=O)c2noc3c2CSc2ccccc2-3)cc1 | inactive: -24.1% | –
CC(c1ccccc1)n1cc2c(c1-c1ccccc1Br)c(=O)n(C)c(=O)n2C (stereo unspecified) | inactive: -14.1% | –
COc1ccc(-c2cnc(C)o2)cc1S(=O)(=O)Nc1c(C)cc(C)cc1C | inactive: 3.28% | –
Cc1ccc(CNC(=O)c2c(O)nc3cc(C)ccn3c2=O)cc1 | inactive: -3.03% | –
